Experimental findings from the RNAGym collection of RNA variant scans (doi:10.1093/nar/gkz1192) are described below.

First the molecules themselves.
B1: CPEB3 Ribozyme (parent)
chain: UAACAGGGGGCCACAGCAGAAGCGUUCACGUCGCAGCCCCUGUCAGAUUCUGGUGAAUCUGCGAAUUCUGCUGUAUAUCUC

Read counts are not given, so values of variants with three or more changes are uncertain.

Variants of B1 are the subject of this data set. As to the kind of experiment: self-cleavage, relative activity (ratio to wild type); higher = more cleavage; in vitro, sequencing. In short, it runs like this: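 After error-prone PCR and barcoding, CPEB3 ribozyme mutant libraries were transcribed with T7 RNA polymerase at 37°C for 5 hours, then given 15 min with DNase I before an EDTA stop, and they cleaved during both steps. Reverse transcription with template switching preceded Illumina sequencing. Relative activity divides a variant's cleaved/total read fraction by the unmutated ribozyme's. At least 5 reads were required per variant, and three batches were averaged.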
In the case of A13G C23A U41C U58C G63C U72C, the self-cleavage is 0.05.

Take A13G A18G U72C: the self-cleavage was found to be 0.31.

As for A13G A28U U78C, the self-cleavage worked out at 0.57. For A13G U25G A35G U72C A77G the value was 0.05.

C12U U25A U49G: the self-cleavage stood at 0.17. Turning to A13G U25A A28U U80C, the self-cleavage worked out at 0.13. Then A13G A20C A35U A64G U74C, with 0.08. Then C12U U43A U67C, with 0.42.

Take A13C C23A A45G U48C U54C A64U A77G: the self-cleavage came out at 0.06.

For the variant A13G A21G U41C U72A, the self-cleavage turned out to be 0.24. With A13G A18G U31G, the self-cleavage came out at 0.2. Then A13G U26C A47G A64U, with 0.08; and A13G A45G U72G U76C A77U, with 0.21.

Regarding A13G U26C A77G, the self-cleavage worked out at 0.42. For A13G A18G G33C U49A the value was 0.04; for A13G A15G A18U U25C U78C, 0.12; for A13G A28U A35G C71G, 0.08. Regarding A13G A20G U58C G61A, the self-cleavage turned out to be 0.12. With A13G A15G A45U, the self-cleavage came out at 0.07. For A13G C32A A45G A56G U58C G63A C71G the value was 0.05. For A13G A56G U80C the value was 0.69; for A13G A21G U31A U66C U78C, 0.24; for A13G U26C U49A U67C, 0.07. Then A13C U41A U43G U49A G63A U76A, with 0.11.

A13G A45U U54C C59A U60A: the self-cleavage is 0.11.

For the variant A13G A18G A28C, the self-cleavage worked out at 0.14.

For the variant A13G C29U G52U A57G, the self-cleavage worked out at 0.11. For A13C U25C U60C U78C the value was 0.29; for A13G A18G G33A A64G, 0.06. For A13G C14A U31C the value was 0.86; for A13G A21G A45G U49G U67C, 0; for C12U U49C C62U, 0.05. Then A13G C17G U41C, with 0.46; and A13G A35G A75G, with 0.88. Turning to A13G A35G A75U, the self-cleavage amounted to 1.04.

With A13C A21U U69A U72C A75U, the self-cleavage is 0.07. Then A13G G22U U48C, with 0.06; and A13C A20G A45U, with 0.34; and A13G A18U G33A, with 0.16.

For the variant A13G A15U G19A A45U U74A, the self-cleavage is 0.24. Then A13G A28G U49C, with 0.48; and A13G A20C A21G U66C U80A, with 0.09. As for A13G G33U U41A, the self-cleavage is 0.2.

As for A13G G22U C38A, the self-cleavage is 0.15.

As to C12U U43C A57G U67A, the self-cleavage was 0.2. For A13C C17U U25C U41A U80C the value was 0.27. Then A13G A15U U54G U69C, with 0.09; and A13G A28G U67C, with 0.14. For A13G A18G A28G U51C the value was 0.31; for A13C A15G C17G A21G U78C, 0.11.

Turning to A13G A15G C38G U69G, the self-cleavage was 0.09. C12U G16A U60C: the self-cleavage amounted to 0.13.

A13G A45U A57U: the self-cleavage came to 0.09.

A13G U26C G30A A35G: the self-cleavage came out at 0.06. Then A13G G24A U48C U60A, with 0.08; and A13G U25C A57U, with 0.1. Then A13G C17U A56G C68G U76C, with 0.08; and A13G C23U U69C U78C, with 0.4.

Take A13G A20G A35U U58A A77G: the self-cleavage is 0.12.

On to A13G A18U U54A A56U U74G, for which the self-cleavage amounted to 0.15.

Turning to A13G C23G U26A G30U U48C C59U U60C, the self-cleavage worked out at 0.06. As to A13G A45G U69C, the self-cleavage turned out to be 0.27. Then A13C U58C A65U, with 0.16; and A13G A18U U26C G36A U51C, with 0.15; and A13G A28U C29A U31A U72C A77G, with 0.18. For A13G U25C A28G C50U the value was 0.04; for A13G A15U U67C, 0.11. For A13G U25C U54C A57G the value was 0.08; for A13C U41C A45U, 0.89.

As to A13G U31C U49C U69A, the self-cleavage was 0.11.

With A13C A20G U26C C29U U78C, the self-cleavage is 0.1. Then A13C U31G G46A U48G, with 0.15. Then A13G A18G A20G, with 0.1; and A13G A35U U78C, with 0.54; and A13G A45U U51C, with 0.21. Then A13G U31C U49C, with 0.16; and A13G A20U A56G, with 0.13; and A13G G16A U25C A56U G70A, with 0.13. Regarding A13G C40U A64G, the self-cleavage was found to be 0.29. For A13G A15U A57G the value was 0.42. Then A13G U26C A28U U60C U66C, with 0.05; and A13G U25C C39U U49C U60G U66C, with 0.21. Then A13G G24A U25C U41C U49C, with 0.15. A13G C39U A65G: the self-cleavage came out at 0.11.
